In all, about 33,000 sequences were measured (“E-score (-0.5 to 0.5)”: median about -0.012, highest 2% from about 0.29 on). The list shows a part of the results.
target: T1, Ybr033w (UniProt P38073); assay: PBM E-score (8-mer binding enrichment) (E-score (-0.5 to 0.5)); higher = stronger / more preferred TF binding; most listed sequences are background and not binding sites; conditions: protein concentration: 200 nM; construct: GST-full length
T1 sequence: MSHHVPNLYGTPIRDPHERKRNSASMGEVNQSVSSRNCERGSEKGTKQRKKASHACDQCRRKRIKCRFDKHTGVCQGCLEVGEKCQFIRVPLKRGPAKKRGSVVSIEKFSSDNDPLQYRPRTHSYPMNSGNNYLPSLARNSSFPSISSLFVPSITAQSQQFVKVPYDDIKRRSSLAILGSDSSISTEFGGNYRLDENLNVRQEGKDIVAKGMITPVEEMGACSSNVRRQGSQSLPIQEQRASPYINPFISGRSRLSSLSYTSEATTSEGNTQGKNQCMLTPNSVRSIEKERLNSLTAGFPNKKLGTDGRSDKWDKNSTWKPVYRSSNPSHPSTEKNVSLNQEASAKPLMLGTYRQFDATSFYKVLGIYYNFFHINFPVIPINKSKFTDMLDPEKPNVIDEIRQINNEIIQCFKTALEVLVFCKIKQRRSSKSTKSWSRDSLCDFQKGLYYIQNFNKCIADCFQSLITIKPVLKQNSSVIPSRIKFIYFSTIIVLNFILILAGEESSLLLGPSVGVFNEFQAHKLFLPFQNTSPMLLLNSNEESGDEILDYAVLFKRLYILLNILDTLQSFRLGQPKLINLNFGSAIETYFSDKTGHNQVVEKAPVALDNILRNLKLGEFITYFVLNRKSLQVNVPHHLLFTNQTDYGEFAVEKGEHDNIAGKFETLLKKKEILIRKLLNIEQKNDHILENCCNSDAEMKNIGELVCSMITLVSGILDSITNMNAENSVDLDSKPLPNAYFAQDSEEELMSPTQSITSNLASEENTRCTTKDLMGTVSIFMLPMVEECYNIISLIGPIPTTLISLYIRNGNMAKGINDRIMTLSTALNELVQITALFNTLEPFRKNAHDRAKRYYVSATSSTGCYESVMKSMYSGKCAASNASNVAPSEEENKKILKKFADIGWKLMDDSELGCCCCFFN
Summary of the method: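 PURExpress in vitro transcription/translation supplied GST-tagged yeast transcription factors, either full-length or DNA-binding domain. Applied at about 100-200 nM to universal all-10-mer Agilent arrays double-stranded by primer extension, the bound protein was detected with fluorescent anti-GST. E-scores, modified Wilcoxon-Mann-Whitney statistics, were given by the Universal PBM Analysis Suite to ungapped eight-base words pooled with their reverse complements after masliner normalisation.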

Sequence | PBM E-score
GAGGCCAC | -0.211
CGTGATAA | 0.0584
ATTCTTCG | -0.0459
AAAGCCTT | -0.196
CTGCATAA | 0.163
CAATGATA | 0.126
AGGCCACA | -0.287
GTGGCCCA | -0.222
AGGTAATA | 0.11
ATCCCTCG | 0.00369
CCGCGGCG | -0.0142
CCAGTGAA | -0.163
GACGCCTA | -0.138
CTGATCGA | -0.0424
AATACAGC | 0.129
CAAAAGCC | -0.028
CGATTGTC | -0.0186
TCCCCAAA | -0.0361
AGGTCGTG | -0.00834
GAAGGTAC | -0.0788
ACTTCATC | 0.182
CACGCTGA | -0.142
CAGCGCAG | -0.153
AAGACTCG | -0.0267
CAAGACCC | -0.312

Sequence | PBM E-score
AAATTGTG | -0.0257
AAGGCTGA | -0.156
AAGAACAC | 0.171
AGCACAAC | 0.0229
CTGGTTTC | -0.00275
ACCGAACT | -0.101
TCAATGGA | 0.0701
GAGAACCC | -0.108
GGTCGTGA | -0.14
ATACTTTG | 0.297
AATTATCT | 0.264
AGATGCAG | 0.0243
CTCTTATA | 0.128
CAGTGCAC | -0.0919
GACCCCAC | -0.137
AAAAACAC | 0.232
ACCTGACC | -0.106
AGTGTGCA | -0.0438
ACGTTGAT | 0.222
CTGGCGGC | -0.265
CAAGACGA | -0.0274
GTAGCGTA | -0.104
ATTCGATG | 0.0894
ATCGCTCA | 0.0367
ACAGCCCA | -0.0773

Sequence | PBM E-score
ATTTGAGC | 0.117
CATAGGTA | 0.0147
ATGACATA | 0.194
CGATGCAA | -0.0664
CCGACCGG | -0.0908
AGAAATCA | 0.232
CCCCTAGA | -0.153
CCACACAC | 0.0262
CTCCGGAC | -0.0672
AACGCGCG | 0.075
GGCAGCGA | -0.224
GGGATACA | -0.143
ATGGAAAT | 0.175
GGTCTCGA | -0.174
GACGGTCA | -0.232
ACCGAGGC | -0.355
AAGCACCG | -0.0861
GCGCCTGA | -0.0486
CACTGGAC | -0.0397
ATAGGGAT | 0.053
GTCACAAC | -0.0588
CGACGGAA | 0.00785
GCGAGGAC | -0.264
CTTGCTTC | -0.0347
AGTTCATA | 0.26

Sequence | PBM E-score
TCCCGGGA | -0.152
ACTACTTA | 0.142
CTCTGGAA | 0.0566
ACAACAAA | 0.217
CCTCGGCA | -0.0312
GGCCAGAA | -0.00503
CAGACGAA | 0.198
CGCTTCGA | 0.0293
CCGAGATA | 0.167
CGAGCAAA | 0.032
AAACCGCG | 0.169
CGCGGTCC | -0.212
CATGCTTC | 0.108
AAATGAAC | 0.208
GACAGATA | 0.0702
GTCATTAA | 0.203
CAGCTACG | -0.0621
GCCACGTA | -0.127
CCCGCAGC | -0.116
GGGAAATA | 0.137
CTATCTGC | -0.0829
GGCAGTTA | -0.102
CAACGGCA | -0.137
GATCGCAA | 0.0983
CACCTGGG | -0.153

Sequence | PBM E-score
AGTGATGG | -0.103
AGCCACGA | -0.228
ATGGTAAC | 0.108
CCATCGAC | -0.146
GAACGTCC | 0.00444
AACTATGA | 0.102
TAGAAAAA | 0.227
AGGCCATA | -0.0784
ACTTAGTG | 0.00959
ATCGATAC | 0.133
AGGATAAC | -0.109
CTACGCAA | -0.0154
CCTAGCAG | -0.224
GTTGGTTA | 0.105
AGTTTACG | 0.0475
AGTCTTAT | 0.082
AGTGCAAC | 0.0301
GTGTGGTA | -0.0585
GTGCTCGA | -0.249
AAACGCAA | 0.153
GAGCATCC | -0.219
CGCAATAC | 0.0993
ATACGGCC | -0.134
CGGACATA | 0.0376
CCCCATCG | -0.117

Sequence | PBM E-score
GAGATGAC | -0.106
GGTCGATA | -0.11
CGACTCCA | 0.0825
GTGGTGCA | -0.124
GCCGATCC | -0.0704
GCCAAATA | 0.00135
AACCAGAC | -0.133
CCATCTGC | 0.0735
ACATGCAC | 0.0537
GACAGCCC | -0.1
CCGTAGGC | -0.291
GTCACCGA | -0.034
CTGATTAC | 0.135
GGATAGTA | 0.206
TATTAGCA | 0.224
CGTTGGTA | -0.0605
CTGTATTA | 0.117
AGTCTCAT | -0.0855
CACATGTA | -0.0333
CCCAGTTA | -0.0098
ACCGCCCG | -0.225
AAGTCGGG | -0.196
ATAATATC | 0.28
GACTTTGA | -0.0389
CCCAGTGA | -0.194

Sequence | PBM E-score
CTAGGGAA | -0.131
CTATTGGA | 0.111
CTCGACAC | -0.144
CGCAACAC | -0.101
GCGCAACC | -0.099
GCGCATAC | -0.0915
GGTCTAGA | -0.0247
CATTACGG | -0.084
CACGGTAA | 0.081
CCGATATA | 0.0768
GTTCCCAA | -0.00185
CGCTAGCC | -0.294
CTCCTCAA | -0.203
AATTATTA | 0.359
CTCCCCAA | -0.291
CCGTTCAG | -0.176
AGTTGCCG | -0.175
CTTAGGCC | -0.248
ATCTAAAG | 0.0585
ACGTCTAA | 0.0249
CCTTTTCG | 0.00344
ACACAGGC | -0.119
